In PubChem BioAssay (NCATS):
Several values for one entry are separate records, joined by “and”; a condition that tells them apart may be missing. Equal entries are not always repeated. The inconclusive results got no clear call from the source; some entries with a clear call stand among them for comparison. Potencies beside an inconclusive call are fits to weak or partial responses and may not hold up. Activity calls are given as the source filed them. Calls come from the whole dose curve; as a rule, active = well fitted cell-killing curve with a large enough effect; inconclusive = small, poorly fitted or top-dose-only effect; inactive = flat fitted curve, though single readings scatter.

assay: Cellular viability qHTS for adrenocortical cancer (ACC) cell line NCI-H295R (AID 1963990); conditions: CellTiter-Glo ATP luminescence, 48 h; activity change, negative = viability loss: at 46.1 µM (top of the series); note: nearly all actives have a fitted effect of over 60% in size
Text: PI: Naris Nilubol, MD Surgical Oncology Program, National Cancer Institute (NCI) National Institute of Health (NIH), Bethesda, Maryland Adrenocortical cancer (ACC) is a rare malignancy with poor survival outcomes and few treatment options. Currently, mitotane is the only FDA-approved therapy for ACC. Although adjuvant radiation therapy is rarely utilized, it has the potential to improve survival in select cases. Through a quantitative high-throughput drug screen (qHTS), we identified auranofin (AF), a thioredoxin reductase (TXNRD) inhibitor, as a promising candidate drug. This study aims to evaluate whether AF can enhance the efficacy of radiation therapy in the treatment of ACC. Two human ACC cell lines, SW-13 and NCI-H295R, were screened using the National Center for Advancing Translational Sciences (NCATS) Pharmaceutical Collection (NPC) and the Mechanism Interrogation PlatE (MIPE) library (~4,991 compounds). CellTiter-Glo (Cat # G7570, Promega, Madison, WI) was utilized to measure cell viability. Described herein are the results of the corresponding viability assay.
PROTOCOL TABLE (as described by Inglese J, Shamu CE and Guy RK. 2007) SEQUENCE No. (e.g., 1, 2, 3, etc.); […] (e.g., Cells, Incubation, Reagent, etc.); VALUE; DESCRIPTION. 1; Cells; 5 uL; white, solid-bottom, 1536-well tissue-culture treated plates. 2; Time; overnight culture at 37C with 5% CO2. 3; Compounds and control; 23 nL; Kalypsis pin tool (Wako USA) equipped with a 1536-well pin head to transfer to the assay plates. 4; Time; 48 hours; 37C with 5% CO2. 5; Reagent; 4 uL; CellTiter-Glo luminescent substrate mix. 6; Time; 20 min at room temperature. 7; Detection; Luminescence; ViewLux plate reader NOTES (numbers refer to Sequence numbers above) 1. NCI-H295R cells were harvested from a T175 flask and resuspended in ITS-supplemented DMEM serum-free medium at a concentration of 300 000 cells/mL. Then 5 uL of resuspended cells were dispensed into each well of white, solid-bottom, 1536-well tissue-culture-treated plates using a multidrop combi dispenser. The plates were covered with stainless steel gasket lids. 2-3. The plates were cultured overnight at 37C with 5% CO2. Twenty-three nL of compounds (eight selected concentrations from the NPC / MIPE) or positive control (10 mM stock of bortezomib) in DMSO was transferred to each well of the assay plate using a pin tool (Kalypsys, San Diego, CA, USA). The final concentration of the compounds in the 5 uL assay volume ranged from 0.5 nM to 46 uM. 4-6. After 48 hours of incubation at 37C and 5% CO2, 4 uL of CellTilter-Glo luminescent substrate mix (Promega, Madison, WI, USA) was added to each well. Then the plates were incubated for 20 minutes at room temperature. 7. After incubation, luminescence was measured using a ViewLux plate reader (PerkinElmer, Waltham, MA, USA) with a clear filter was used to measure the number of metabolically competent cells. To determine compound activity in the qHTS assay, the titration-response data for each sample was plotted and modeled by a four-parameter logistic fit yielding IC50 and efficacy (maximal response) values. Raw plate reads for each titration point were normalized relative to positive control ([…], 100% inhibition) and DMSO-only wells (basal, 0%). REFERENCES: Inglese J, Shamu CE and Guy RK, Reporting data from high throughput screening of small molecule libraries, Nature Chemical Biology, 2007, 3(8): 438-441. doi.org/10.1038/nchembio0807-438.
Tags give direction and shape of the fitted curve.

Structure (SMILES) | Potency | activity change, negative = viability loss
CNC(=O)CN(CCN(CCN(CC(=O)[O-])CC(=O)NC)CC(=O)[O-])CC(=O)[O-].O.[Gd+3] | inactive | –
O=C(Cc1ccc(-c2ccc(OCCN3CCOCC3)cc2)cn1)NCc1ccccc1 | active: 0.178 µM | –
COc1cc2ncnc(Nc3ccc(F)c(Cl)c3)c2cc1NC(=O)/C=C/CN1CCCCC1 | active: 4.47 µM | –
CCOC(=O)c1ccc(C#Cc2ccc3c(c2)C(C)(C)CCS3)nc1 | inconclusive: 0.58 µM [cytotoxic, full curve, poor fit] | –
CC(=O)[C@]1(O)Cc2c(O)c3c(c(O)c2[C@@H](O[C@H]2C[C@H](N)[C@H](O)[C@H](C)O2)C1)C(=O)c1ccccc1C3=O | active: 1.84 µM and active: 2.24 µM | –
Cc1cc2c(F)c(Oc3ncnn4cc(OCC(C)OC(=O)C(C)N)c(C)c34)ccc2[nH]1 (stereo not given) | inconclusive: 25.1 µM [cytotoxic, partial curve] | –
C=C1C(=O)O[C@H]2C[C@H](C)C(/C=C/C(C)=O)=CC[C@H]12 | active: 7.94 µM | –
S=P(N1CC1)(N1CC1)N1CC1 | inconclusive: 63.1 µM [cytotoxic, single point] | –
CCc1ccc(C(=O)C(C)CN2CCCCC2)cc1 (stereo not given) | inconclusive: 10.3 µM [cytotoxic, partial curve, poor fit] | –
CO[C@@H]1[C@H](N(C)C(=O)c2ccccc2)C[C@H]2O[C@]1(C)n1c3ccccc3c3c4c(c5c6ccccc6n2c5c31)C(=O)NC4 | inconclusive: 0.0398 µM [cytotoxic, full curve, poor fit] | –
COc1cc([C@@H]2c3cc4c(cc3[C@H](O)[C@H]3COC(=O)[C@H]23)OCO4)cc(OC)c1OC | active: 7.3 nM and active: 50.1 nM | –
C[C@@H](Oc1cc(C(=O)Nc2ccc(C(=O)N3CCN(C)CC3)cc2)nnc1N)c1c(Cl)ccc(F)c1Cl | active: 2.82 µM | –
Cc1ccc(S(=O)(=O)NC(=O)NC2CCCCCCC2)cc1 | inactive | –
Cc1cccc(CN2CCN(C(c3ccccc3)c3ccc(Cl)cc3)CC2)c1 (stereo not given) | inconclusive: 6.51 µM [cytotoxic, partial curve, poor fit] and inconclusive: 31.6 µM [cytotoxic, single point] | –
O=C(Nc1ncc([N+](=O)[O-])s1)c1cccs1 | inconclusive: 23.1 µM [cytotoxic, single point] | –
O=S(=O)(Nc1ccc(-c2cccnc2)c2cccnc12)c1cccc(C(F)(F)F)c1 | active: 3.98 µM | –
CN=C(NC#N)NCCSCc1nc[nH]c1C | inactive | –
Cc1cc(Nc2nc(N[C@@H](C)c3ccc(F)cc3)c(C#N)cc2F)n[nH]1 | inconclusive: 1.26 µM [cytotoxic, partial curve, poor fit] | –
c1ccc2occc2c1 | inactive | –
C=C(C)[C@@H]1CC[C@]2(C)CC[C@]3(C)[C@H](CC[C@@H]4[C@@]5(C)CC[C@H](O)C(C)(C)[C@H]5CC[C@]43C)[C@@H]12 | inactive | –

Structure (SMILES) | Potency | activity change, negative = viability loss
CC(=O)Nc1ccc(OCC(O)CNC(C)C)cc1 (stereo not given) | inconclusive: 13 µM [cytotoxic, partial curve] | –
Cc1ccc(S(=O)(=O)Nc2cc(Cl)ccc2C(=O)Nc2nc(-c3ccccc3)cs2)cc1 | inconclusive: 35.5 µM [cytotoxic, single point] | –
CC[C@@]1(O)C(=O)OCc2c1cc1n(c2=O)Cc2cc3cc(O)ccc3nc2-1 | active: 1.58 µM | –
CC(=O)c1ccc2c(c1)c1cc(C(C)=O)ccc1n2CCNC(C)C | active: 1.58 µM | –
CCO[C@H](Cc1ccc(OCCc2ccc(OS(C)(=O)=O)cc2)cc1)C(=O)O | inconclusive: 3.26 µM [cytotoxic, full curve] | –
CN1CC[C@@H](c2c(O)cc(O)c3c(=O)cc(-c4ccc(C(F)(F)F)cc4Cl)oc23)[C@@H]1CO | inconclusive: 31.6 µM [cytotoxic, single point] | –
NCCNCCNCCN | inactive | –
CCCCCCCCCCCCOCCOCCOCCOCCOCCOCCOCCOCCOCCO | inconclusive: 20.6 µM [cytotoxic, partial curve] | –
Cc1oncc1C(=O)Nc1ccc(C(F)(F)F)cc1 | inconclusive: 29.1 µM [cytotoxic, single point] | –
CCNC(=O)/C=C/c1cccc(Br)c1 | inactive | –
CCn1cc(C(=O)O)c(=O)c2cnc(N3CCCC3)nc21 | – | inactive: -14.1% [at 9.17 µM]
COc1ccc(Cl)c(Nc2ncnc3cc(OCC4CCN(C)CC4)c(OC)cc23)c1 | inconclusive: 35.5 µM [cytotoxic, single point] | –
CC(=O)c1c(C)c2cnc(Nc3ccc(N4CCNCC4)cn3)nc2n(C2CCCC2)c1=O | active: 25.1 µM | –
O=C(/C=C/N1C[C@H]2C[C@@H]1CN2c1ccccn1)c1ccccc1O | inconclusive: 35.5 µM [cytotoxic, single point] | –
CO[C@@]1(NC(=O)C(C(=O)O)c2ccc(O)cc2)C(=O)N2C(C(=O)O)=C(CSc3nnnn3C)CO[C@@H]21 (stereo not given in full) | inactive | –
CN1CCN(c2ccc3nc(-c4c(N)c5c(F)cccc5[nH]c4=O)[nH]c3c2)CC1 | active: 17.8 µM | –
Cc1[nH]nc(C(F)(F)F)c1Cc1sc2c(c1C(=O)N1C[C@](C)(O)CO1)c(=O)n(C)c(=O)n2C(C)C | inconclusive: 0.251 µM [cytotoxic, full curve] | –
CCCSc1ccc2nc(NC(=O)OC)[nH]c2c1 | active: 0.82 µM | –
CCOC(=O)C=C[C@H](C[C@@H]1CCNC1=O)NC(=O)[C@@H](CC(=O)[C@@H](NC(=O)c1cc(C)on1)C(C)C)Cc1ccc(F)cc1 | inactive | –
O=C(Nc1cccc(C(F)(F)F)c1)c1cccc2cc(Oc3cc(CO)ncn3)ccc12 | inconclusive: 35.5 µM [cytotoxic, single point] | –
